Laboratory results published in PubChem BioAssay (Tox21).
Results filed as inconclusive are left out. Calls follow the shape of the dose curve; as a rule, active = well fitted cell-killing curve with a large enough effect in the repeat runs; inconclusive = weak or mixed curves, or effect the other way; inactive = flat fitted curve, though single readings scatter. Some structures have more than one record in an assay (separate samples or runs), and their calls can disagree. Not every entry of the source has a single result; some have several. This is not the full list of results. The source may hold further records. The values listed for one entry are repeated measurements (runs, samples, wells, individuals or studies). Brackets tell where a record comes from. The letters are not those of the source and start again with each entry.

assay: cAMP Responsive Elements (CRE) small molecule antagonists, cell-based qHTS assay: qHTS cell viability counter screen (AID 2060913); conditions: CRE-bla HEK293T viability, CellTiter-Glo luminescence, 5 h; series mostly up to 42.5 µM; also: nearly all actives have a fitted effect of over 40% in size
Description: (§1) U.S. Tox21 Program National Center for Advancing Translational Sciences [NCATS] Division of Preclinical Innovation [DPI] U.S. Environmental Protection Agency [EPA] National Institutes of Environmental Health Sciences [NIEHS] National Toxicology Program [NTP] U.S. Food and Drug Administration [FDA] Tox21 Assay Overview: CREB (cyclic-AMP Responsive Element Binding Protein) is a cellular transcription factor. It binds to certain DNA sequences called cAMP Responsive Elements (CRE) and regulates the transcription of the genes. […] This cell line can be used to find agonists/antagonists of the cyclic AMP signaling pathway. The activation of the report gene under culture conditions can be detected by fluorescence intensity. This cell line has been used to screen the Tox21 10K compound library to identify agonists that induce oxidative stress. The cytotoxicity of the Tox21 compound library against the CRE-bla cell line was tested in parallel by measuring the cell viability using CellTiter-Glo assay (Promega, Madison, WI) in the same wells.
Tox21 Assay Protocol Summary: CRE-bla Hek 293T cells were suspended in assay medium (DMEM containing 10% dialyzed FBS, 0.1 mM NEAA, 1 mM sodium pyruvate and 25 mM HEPES) and dispensed at 2,000 cells/4 uL /well into 1536-well black wall/clear bottom plates using a Multidrop Combi (ThermoFisher Scientific, Waltham, MA) dispenser. After the assay plates were incubated at 37 C/5% CO2 for 18 hrs, 23 nL of compounds dissolved in DMSO, positive controls or DMSO only was transferred to the assay plate by a pintool workstation (Kalypsys, San Diego, CA), followed by addition of 1 uL of 1.25uM NKH477 (0.25 uM as final concentration) in assay medium using a Flying Reagent Dispenser (Aurora Discovery, San Diego, CA). The plates were incubated at 37 C and 5% CO2 for 3 hrs. Then 1 uL of LiveBLAzer B/G FRET substrate (Invitrogen, Carlsbad, CA) was added to each well using Bioraptr Flying Reagent Dispenser (FRD, Aurora Discovery, San Diego, CA). The plates were incubated at room temperature for 2 h, then fluorescence intensities were measured using an Envision plate reader (PerkinElmer, Shelton, CT) at Excitation 405nm, Emission 460nm and 530nm. The % activity was determined from the ratio of 460nm/530nm. For cell viability readout that measures cytotoxicity, 4 uL /well of CellTiter-Glo reagent was added into the assay plates using Bioraptr FRD. After 30 min incubation at room temperature, the luminescence intensity in the assay plates was measured using a ViewLux (PerkinElmer, Shelton, CT) plate reader.
Potency is read from the fitted curve at half-maximal effect.

For `Cc1c(O)cccc1C(=O)N[C@@H](CSc1ccccc1)[C@H](O)CN1C[C@H]2CCCC[C@H]2C[C@H]1C(=O)NC(C)(C)C`, which Potency is on record?
Its Potency is “active: 26.6 µM [sample A] and inactive [sample B]”.

For `Oc1c(Cl)cc(Cl)c(Cl)c1Cc1c(O)c(Cl)cc(Cl)c1Cl`, which Potency is on record?
The Potency was “active: 22.7 µM [sample A] and inactive [sample B]”.

With `NC(=NCCCCCCN=C(N)/N=C(\N)Nc1ccc(Cl)cc1)/N=C(\N)Nc1ccc(Cl)cc1` as the compound, how does the Potency read?
Its Potency is “active: 60.6 µM [sample A] and inactive [sample B] and inactive [sample C]”.

For `CCCCC(CC)COC(=O)c1ccc(O)cc1` (centres undefined), which Potency is on record?
Its Potency is “inactive [sample A] and active: 50.8 µM [sample B]”.

With `CC(=O)O[C@]1(C(C)=O)CC[C@H]2[C@@H]3C=C(Cl)C4=CC(=O)CC[C@]4(C)[C@H]3CC[C@@]21C` as the compound, how does the Potency read?
Its Potency is “active: 43.2 µM [sample A] and inactive [sample B]”.

For `Oc1ccc(Cl)cc1Sc1cc(Cl)ccc1O`, which Potency is on record?
The Potency was “active: 24.3 µM [sample A] and inactive [sample B]”.

Which Potency does the source give for `CCCCCCCCCCCCCCCO` here?
Its Potency is “active: 43.6 µM [sample A] and inactive [sample B]”.

Which Potency does the source give for `Clc1ccc(C(c2ccccc2Cl)C(Cl)Cl)cc1` (centres undefined) here?
The Potency was “active: 45.2 µM [sample A] and inactive [sample B]”.

assay: cAMP Responsive Elements (CRE) small molecule agonists, cell-based qHTS assay: qHTS cell viability counter screen (AID 2060914); conditions: CRE-bla HEK293T viability, CellTiter-Glo luminescence, 5 h; series mostly up to 92.4 µM;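 also: viability read after 3 h of compound exposure; nearly all actives have a fitted effect of over 50% in size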
Description: National Center for Advancing Translational Sciences [NCATS]
Division of Preclinical Innovation [DPI]
U.S. Environmental Protection Agency [EPA]
National Institutes of Environmental Health Sciences [NIEHS]
National Toxicology Program [NTP]
U.S. Food and Drug Administration [FDA]
as §1, with “CREB” for “U.S. Tox21 Program National Center for Advancing Translational Sciences [NCATS] Division of Preclinical Innovation [DPI] U.S. Environmental Protection Agency [EPA] National Institutes of Environmental Health Sciences [NIEHS] National Toxicology Program [NTP] U.S. Food and Drug Administration [FDA] Tox21 Assay Overview: CREB”
Tox21 Assay Protocol Summary:
CRE-bla Hek 293T cells were suspended in assay medium (DMEM containing 10% dialyzed FBS, 0.1 mM NEAA, 1 mM sodium pyruvate and 25 mM HEPES) and dispensed at 2,000 cells/5 uL /well into 1536-well black wall/clear bottom plates using a Multidrop Combi (ThermoFisher Scientific, Waltham, MA) dispenser. After the assay plates were incubated at 37 C/5% CO2 for 18 hrs, 23 nL of compounds dissolved in DMSO, positive controls or DMSO only was transferred to the assay plate by a pintool workstation (Kalypsys, San Diego, CA). After the plates were incubated at 37 C/5% CO2 for 3 hrs, 1 uL of LiveBLAzer B/G FRET substrate (Invitrogen, Carlsbad, CA) was added to each well using Bioraptr Flying Reagent Dispenser (FRD, Aurora Discovery, San Diego, CA). The plates were incubated at room temperature for 2 h, then fluorescence intensities were measured using an Envision plate reader (PerkinElmer, Shelton, CT) at Excitation 405nm, Emission 460nm and 530nm. The % activity was determined from the ratio of 460nm/530nm. For cell viability readout that measures cytotoxicity, 4 uL /well of CellTiter-Glo reagent was added into the assay plates using Bioraptr FRD. After 30 min incubation at room temperature, the luminescence intensity in the assay plates was measured using a ViewLux (PerkinElmer, Shelton, CT) plate reader.

With `COc1ccc2cc3[n+](cc2c1OC)CCc1cc2c(cc1-3)OCO2` as the compound, how does the Potency read?
Its Potency is “inactive [sample A] and active: 5.96 µM [sample B]”.

For `CC(=O)Oc1ccc(C(c2ccc(OC(C)=O)cc2)c2ccccn2)cc1`, which Potency is on record?
Its Potency is “inactive [sample A] and active: 5.96 µM [sample B]”.

For `COc1ccc(CCN2CCC(Nc3nc4ccccc4n3Cc3ccc(F)cc3)CC2)cc1`, which Potency is on record?
Its Potency is “active: 49.6 µM [sample A] and inactive [sample B]”.

Which Potency does the source give for `Oc1ccc(Cl)cc1Cc1cc(Cl)ccc1O` here?
Its Potency is “active: 31.2 µM [sample A] and inactive [sample B]”.

Which Potency does the source give for `Clc1ccc(C(c2ccccc2Cl)C(Cl)Cl)cc1` (centres undefined) here?
Its Potency is “active: 43.3 µM [sample A] and inactive [sample B]”.

With `CC(C)(C)c1ccc(O)c(C(C)(C)C)c1` as the compound, how does the Potency read?
Its Potency is “inactive [sample A] and active: 54.5 µM [sample B]”.
